First the molecules themselves.
B1: LINE1-mini (parent)
chain: GGCAGAGCUCAACACAGCGUGGCAAAGUGGCUGUGGCUAGACUGCC

The source gives no read counts; variants with many changes may rest on few reads.

Variants of B1 are the subject of the data set. Put plainly: self-cleavage, relative activity (ratio to wild type); higher = more cleavage; in vitro, sequencing; the parent is a self-cleaving ribozyme.
As for GGUAGAGCUCAACACAGCGUGGCAAAGUGGCCGUGUCUAGACUGCC [C3U U32C G36U], the self-cleavage turned out to be 0.05.

As to GGCCGUGCUCAACACAGCGUGGCAAAGUGGCUGUGGCUAGACUGGC [A4C A6U C45G], the self-cleavage came to 0.26.

As to GGCCGUGCUCAAGACAGCGUGGCAAAGUGGUGGUGGCUAGACUGCC [A4C A6U C13G C31U U32G], the self-cleavage came out at 0.02.

For the variant GGUAGAGCUCAACACAGCGUGGCAAAGUGGCUGUGUCUAGACUUCC [C3U G36U G44U], the self-cleavage came to 0.65.

Regarding GGUAGAGCUCAACACAGCGCGGCAAAGUGGCUGUGGCUAGACUGGC [C3U U20C C45G], the self-cleavage was found to be 0.27.

Turning to GGUAGAGCUCAACACAGCGCGGCAAAGUGGCUGUGGCUAGACUGUC [C3U U20C C45U], the self-cleavage is 0.05.

For the variant GGUAGAGCUCAACACAGCGUGGCAAAGUGGCUGUGGCAAGAUUGCC [C3U U38A C42U], the self-cleavage is 0.37.

Regarding GGCCGCCCUCCACACAGCGUGGCAAAGUGGCUGAGGCUAGACUCUC [A4C A6C G7C A11C U34A G44C C45U], the self-cleavage is 0.

As for GGCCGUGCUCAACACAGCGUGGCAAAGUGGCUGUUGCUAGACUGCC [A4C A6U G35U], the self-cleavage worked out at 0.03.

As for GGUAGAGCGCAACACAGCGUGUCAAAGUGGCUGUGGCUAGACUGCC [C3U U9G G22U], the self-cleavage stood at 0.07.

In the case of GGCCGCGCUCAACACAGCAUGGCAAAGUGGCUGUGGUUAGACUGCU [A4C A6C G19A C37U C46U], the self-cleavage amounted to 0.1.

Regarding GGUAGAGCUCAACACAGCGAGGCAAAGUGGCGAUGGCUAGACUGCC [C3U U20A U32G G33A], the self-cleavage is 0.04.

Take GGUAGAGCUCAACACAGCGUGGCAAAGAGGCUGUGGCUAGUCUGCC [C3U U28A A41U]: the self-cleavage amounted to 0.52.

GGCCGCGCUCACCACAGAGUGGCAUGGUGGCUGUGGCUAAACUGCA [A4C A6C A12C C18A A25U A26G G40A C46A]: the self-cleavage is 0.01.

With GGUAGAGCUCAACACAGCGUGGCAAAGUAGCUGUGACUAGAUUGCC [C3U G29A G36A C42U], the self-cleavage stood at 0.25.

Consider GGUAGAGCUCAACACAGCGUGGCAAAGUGGCUGUGGCUAGACUUGC [C3U G44U C45G], for which the self-cleavage came out at 0.11.

On to GGUAGAGCUCAACACAGCGUGGCAAAGAGGCUGUGGCUAGAAUGCC [C3U U28A C42A], for which the self-cleavage was 0.15.

As to GGUAGAGCUCAACACAGCGUGGCAAAGUGGCUUUGUCUAGACUGCC [C3U G33U G36U], the self-cleavage is 0.02.

Regarding GGUAGAGCUCAACACAGCGUGGCAAAGUGGCUGUGGCCAUACUGCC [C3U U38C G40U], the self-cleavage turned out to be 0.08.

Consider GGUAGAGCUCAACACAGCGUGGCAAAGUGGCUGUGGCUAAACUGUC [C3U G40A C45U], for which the self-cleavage worked out at 0.66.

Consider GGCCGAGCUCCACACAGCGUGGCAAAGUGGAUAUGGCUAGAUUGCC [A4C A11C C31A G33A C42U], for which the self-cleavage turned out to be 0.01.

Consider GGCCGAGCUCCACACAGCGUGGCAAAGUGGCUGUGGCGAGACUUCG [A4C A11C U38G G44U C46G], for which the self-cleavage amounted to 0.03.

Take GGCCGUGCUCAACACAGCGUGGCAAAGUGGCUGUGACUAGACUGCC [A4C A6U G36A]: the self-cleavage worked out at 0.15.

On to GGUAGAGCUCAACACAGCGAUGCAAAGUGGCUGUGGCAAGACUGCA [C3U U20A G21U U38A C46A], for which the self-cleavage is 0.09.

On to GGUAGAGCUCAACACAGCGUGGCAAAGUGGCUGUGGCUAGACAUCC [C3U U43A G44U], for which the self-cleavage came out at 0.16.

As for GGUAGAGCUCAACACAGCGUGGCAAAGUGGCGGUGGCUACACUGCC [C3U U32G G40C], the self-cleavage was determined as 0.03.

Turning to GGUAGAGCUCAACACAGCGUGGCAAAGUGACUUUGGCUAGACUGCC [C3U G30A G33U], the self-cleavage worked out at 0.37.

Turning to GGUAGAGCUCAACACAGCGUGGCAAAGUGGCUGUGGCUAUACUGCU [C3U G40U C46U], the self-cleavage is 0.07.

Take GGUAGAGCGCAAAAUAGCGUGGCAAAGUGGCUGUGGCUAGACUGCC [C3U U9G C13A C15U]: the self-cleavage is 0.03.

With GGCCGGGCUCAACACAGCGUGGCAAAGGGGCUGUGGCUAGACUGCC [A4C A6G U28G], the self-cleavage came to 0.

With GGUAGAGCUCAACACAGCGUGGCAAAGGGGAUGUGGCUAGACUGCC [C3U U28G C31A], the self-cleavage came to 0.02.

With GGUAGAGCUCAACACAGCGUGGCAAAGCGGCUGUGUCUAGGCUGCC [C3U U28C G36U A41G], the self-cleavage amounted to 0.19.

Take GGUAGAGCACAACACAGCGUGGCAAAGUGGCUGUGGCUAGACUUCC [C3U U9A G44U]: the self-cleavage was 0.08.

With GGUAGAGCCCAACACAGCAUGGAAAAGUGGCGGUGCCUAGACUGCC [C3U U9C G19A C23A U32G G36C], the self-cleavage was determined as 0.01.

Regarding GGUAGAGCUCAACACAGCGGGGCAAAGUGGCUGUGGCUAGACUGGC [C3U U20G C45G], the self-cleavage turned out to be 0.08.

Consider GGUAGAGCCCAACACAGCGUGGCAAAGUGGCUGUGACUAGUCUGCC [C3U U9C G36A A41U], for which the self-cleavage turned out to be 0.05.

GGUAGAGCUCAACACAGCGUGGCAAAGUUGGUGUGGCAAGACUGCC [C3U G29U C31G U38A]: the self-cleavage is 0.35.

As for GGCCGAGCUCCACACAGCGUGGCAAAGUGGCUGUGGCUGGACUGCC [A4C A11C A39G], the self-cleavage was 0.04.

As to GGUAGAGCUCAACACAGCGGGGCAUAGUGGCUGUGCCUAGACUGCC [C3U U20G A25U G36C], the self-cleavage was determined as 0.05.

Regarding GGUAGAGCUCAACACAGCGAGGCAAAGUGGCUGUGGCUAGAGUGCC [C3U U20A C42G], the self-cleavage is 0.14.

On to GGUAGAGCUCAACACAGCGUGGCAAAGCGGCUCUGGAUAGACUGCC [C3U U28C G33C C37A], for which the self-cleavage was found to be 0.03.

In the case of GGUAGAGCACAACACAGCGAGGCAAAGUGGCUGUGGCCAGACUGCC [C3U U9A U20A U38C], the self-cleavage came to 0.1.

As for GGUAGAGCUCAACACAGCGUGGCAAAGUGACUGUGGCAAGACUGCC [C3U G30A U38A], the self-cleavage was determined as 0.8.

With GGUAGAGCUCAACACAGCGUGGCAAAGUGGCUUUGGCUAGACCGCC [C3U G33U U43C], the self-cleavage is 0.

As to GGCCGGGCUCAACACAGUGUGGCGAAGUGGCUGUGGCUAGACUGCC [A4C A6G C18U A24G], the self-cleavage was 0.18.

As to GGUAGAGCUCAACACAGCGAGGCAAAGUGGCUGUGGUUAGACUGCC [C3U U20A C37U], the self-cleavage was determined as 0.06.

For GGUAGAGCUCAACACAGCGUGGCAAAGUGGCUGCGGCUAGACUGCG [C3U U34C C46G], the self-cleavage stood at 0.06.

Take GGUAGAGCUCAACACAGCGUGGCAAAGUGGCUGCGGCUAGACUGCU [C3U U34C C46U]: the self-cleavage is 0.05.

Turning to GGUAGAGCACAACACAGCGUGACAAAGUGGCUGUGGCUAGAUUGCC [C3U U9A G22A C42U], the self-cleavage is 0.43.

With GGUAGAGCUCAACACAGCGUGGCAAAGCGGGUAUGGCGACACUGCC [C3U U28C C31G G33A U38G G40C], the self-cleavage was 0.02.

For GGUAGAGCUCAACACAGCGUGGCAAAGUGGCUGUGGCUAGACGGCU [C3U U43G C46U], the self-cleavage came out at 0.01.

For the variant GGUAGAGCACAUCACAGCGUGGCAAAGUGGCUGUGGCUAGACUGCC [C3U U9A A12U], the self-cleavage turned out to be 0.02.

Turning to GGUAGAGCACAACACAGCGGGGCAAAGUGGCUGUAGCUAGACUGCC [C3U U9A U20G G35A], the self-cleavage was 0.48.

In the case of GGUAGAGCUCAACACAGCGUGGCAAAGCGGCUGUAACUAGACUGCC [C3U U28C G35A G36A], the self-cleavage turned out to be 0.48.

With GGUAGAGCUCAACACAGCGUGGCAAAGUGGCUAUGGCCAGACUGUC [C3U G33A U38C C45U], the self-cleavage was found to be 0.08.

For the variant GGUAGAGCUCAACACAGCGUGGCAAAGUGGCUGUGCCUUGACUGCC [C3U G36C A39U], the self-cleavage was 0.15.

For the origin of these results see the RNAGym collection of RNA variant scans (doi:10.7554/elife.90254).
